# Hit rate of the full screen: of about 390,000 compounds, about 150 (0.038%) were called active. The shares of active, inactive and inconclusive entries below differ from those in the screen. Calls follow the shape of the dose curve; as a rule, active = well fitted inhibition curve with a large enough effect; inconclusive = small, poorly fitted or top-dose-only effect; inactive = no such curve, though single readings can be large or run the other way. A potency beside an inconclusive call is a rough fit, not a confirmed value.
# Target: Regulator of G-protein signaling 4 (Homo sapiens) (UniProt P49798)
# Chain of UniProt P49798 (P49798 whole entry, looked up): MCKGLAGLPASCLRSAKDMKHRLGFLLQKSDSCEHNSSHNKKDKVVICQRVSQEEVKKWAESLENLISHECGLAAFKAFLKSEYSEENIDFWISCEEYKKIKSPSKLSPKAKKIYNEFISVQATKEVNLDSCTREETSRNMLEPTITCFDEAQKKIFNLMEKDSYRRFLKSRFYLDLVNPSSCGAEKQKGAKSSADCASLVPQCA
# Test: Inhibitors of Regulator of G Protein Signaling (RGS) 4: qHTS; also: nearly all actives have a fitted effect of over 75% in size
# Conditions: Transcreener GDP fluorescence polarization, RGS4-accelerated GTP hydrolysis; series mostly up to 114 µM
# Procedure, shortened: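 MLSMR compounds (23 nl, pin-transferred) preincubated 10 min at room temperature with a 500nM (2x) first reagent, then RGS4 at 900nM (2x) plus Transcreener GDP mix added; fluorescence polarization (620/688 nm) read before and after 90 min at 30 °C.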
# % is scaled to controls: 0 for no effect and ±100 for the full control effect; potency is read from the fitted curve at half-maximal effect; tags tell the direction and shape of the fitted curve.
Compound,Potency,"activity change, negative = inhibition"
Cc1cccc(N(C(=O)c2snc(C(N)=O)c2N)C(C(=O)NC2CCCC2)c2ccc(C)o2)c1 (stereo not given),inactive,
O=C(COC(=O)/C=C/c1ccco1)NC1CCCCC1,"inconclusive: 79.4 µM [inhibitor, partial curve, poor fit]",
CCn1c(SCC(=O)N2CCN(c3ccc(Cl)cc3)CC2)nc2ccccc2c1=O,"inconclusive: 89.1 µM [inhibitor, partial curve, poor fit]",
CC(=O)c1cccc(OC(=O)c2ccccc2)c1,inactive,
O=C(NN1C(=O)C2C3C=CC(C4CC34)C2C1=O)c1ccc(Cl)c(Cl)c1 (stereo not given),"inconclusive: 89.1 µM [inhibitor, single point]",
COc1ccc(N2CCN(c3n[nH]c(N)n3)CC2)cc1,"inconclusive: 100 µM [inhibitor, partial curve, poor fit]",
S=C(Nc1ccc(Nc2ccccc2)cc1)N1CCN(c2ncccn2)CC1,"inconclusive: 50.1 µM [inhibitor, partial curve, poor fit]",
CCOC(=O)c1ccc(-n2c(CN(CC)CC)nc3ccc([N+](=O)[O-])cc3c2=O)cc1,"inconclusive: 79.4 µM [inhibitor, partial curve, poor fit]",
Cc1ccc(-c2nc3cccnc3o2)cc1NC(=O)COc1ccc(Cl)cc1C,inactive,
O=C(NCc1ccco1)c1cccc2c1C(=O)c1ccc(/C=C/c3ccccc3)cc1S2(=O)=O,"inconclusive: 50.1 µM [inhibitor, partial curve, poor fit]",
O=C(Nc1nc(-c2ccc(Br)cc2)ns1)c1ccccc1F,inactive,
Nc1ccc(S(=O)(=O)Nc2nccc(/C=C/c3ccc(Br)s3)n2)cc1,"inconclusive: 50.1 µM [inhibitor, partial curve, poor fit]",
N#CC1=C2SCN(Cc3ccco3)CN2C(=O)CC1c1ccccc1F (stereo not given),"inconclusive: 56.2 µM [inhibitor, partial curve, poor fit]",
CCOc1ccc(C(=O)NCCc2ccc3c(c2)OCCO3)cc1,"inconclusive: 100 µM [inhibitor, single point]",
Cc1csc(C)[n+]1CC(=O)c1ccccc1,"inconclusive: 50.1 µM [inhibitor, partial curve, poor fit]",
O=S(=O)(NCC(c1ccco1)N1CCN(c2ccc(F)cc2)CC1)c1ccc(F)cc1 (stereo not given),inactive,
O=C(CSc1ccc(Cl)cc1)Nc1ccc(-c2nc3ccccc3[nH]2)cc1,"inconclusive: 44.7 µM [inhibitor, partial curve, poor fit]",
O=C(O)CCCN1C(=O)C(=O)/C(=C(/O)c2ccccc2)C1/C=C/c1ccccc1 (stereo not given),"inconclusive: 25.1 µM [inhibitor, full curve, poor fit]",
CCC(C)Nc1nc(-c2c[nH]c3ccccc23)cs1 (stereo not given),"inconclusive: 17.8 µM [inhibitor, full curve, poor fit]",
C=CCOC(=O)C1=C(C)N=C2SCCC(=O)N2C1/C=C/c1ccccc1 (stereo not given),"inconclusive: 79.4 µM [inhibitor, partial curve, poor fit]",
Cc1ccc(-c2ccc(CCC(=O)O)n2-c2ccc(C(C)C)cc2)cc1,inactive,
O=C(Nc1cccc(-n2cnnn2)c1)c1cc2ccccc2o1,"inconclusive: 79.4 µM [inhibitor, single point]",

Compound,Potency,"activity change, negative = inhibition"
O=C1CCC/C1=C/Nc1cccc(F)c1,"inconclusive: 50.1 µM [inhibitor, partial curve, poor fit]",
CC1CCN(C(=O)COC(=O)/C=C/c2ccco2)CC1,"inconclusive: 79.4 µM [inhibitor, partial curve, poor fit]",
CC1=NN(C(N)=S)C(=O)C1N=Nc1c(Br)cc(Br)cc1Br (stereo not given),"inconclusive: 79.4 µM [inhibitor, partial curve, poor fit]",
Cc1ccc(NC(=O)CN2C(=O)S/C(=C/c3ccc(-c4cc(C(=O)O)ccc4C)o3)C2=O)cc1C,"inconclusive: 79.4 µM [inhibitor, partial curve, poor fit]",
Oc1ccc(-c2nnc(SCC3CCCCC3)o2)cc1,inactive,
CC(C)(C)c1ccc(Oc2nc3ccccn3c(=O)c2/C=C(\C#N)c2nc3ccccc3s2)cc1,"inconclusive: 63.1 µM [inhibitor, partial curve, poor fit]",
O=C(Nc1nccs1)c1cncc(Br)c1,inactive,
CN(C)/C=C1/Oc2c(ccc3ccccc23)C1=O,"inconclusive: 79.4 µM [inhibitor, partial curve, poor fit]",
O=c1cc(-c2c(O)c3ccccc3n(Cc3ccccc3)c2=O)[nH][nH]1,"inconclusive: 50.1 µM [inhibitor, partial curve, poor fit]",
COc1cccc(-n2nnnc2S(C)(=O)=O)c1,inactive,
CCNC(=O)NC(=O)C(C)Sc1nc2cc(C(=O)OC)ccc2c(=O)n1-c1ccccc1 (stereo not given),inactive,
COc1ccccc1NC(=O)c1ccc(-c2nn(C)c(=O)c3ccccc23)cc1,"inconclusive: 100 µM [inhibitor, single point]",
COc1cc(-c2nc(=S)[nH][nH]2)cc(OC)c1OC,"inconclusive: 39.8 µM [inhibitor, partial curve, poor fit]",
CCNC(=S)Nc1scc(-c2ccccc2)c1C(=O)OCC,"inconclusive: 79.4 µM [inhibitor, partial curve, poor fit]",
C[n+]1c(-c2ccccc2)cc2c(=Cc3ccc([N+](=O)[O-])cc3)c3ccccc3n21,"inconclusive: 56.2 µM [inhibitor, partial curve, poor fit]",
CCOc1cc(/C=C2\C(=O)NN(c3ccccc3)C2=O)cc([N+](=O)[O-])c1O,"inconclusive: 31.6 µM [inhibitor, full curve, poor fit]",
Cc1cc(F)ccc1S(=O)(=O)Nc1ncnc2sccc12,"inconclusive: 31.6 µM [inhibitor, full curve, poor fit]",
CCCCN(C)C(=O)C1CCN(C/C(C)=C/c2ccccc2)CC1,"inconclusive: 70.8 µM [inhibitor, partial curve, poor fit]",
COc1ccc(C)cc1NS(=O)(=O)c1ccc2c3c(cccc13)C(=O)N2,inactive,
Oc1c(C(c2ccccc2F)N2CCN(c3ccccc3F)CC2)sc2nc(-c3ccco3)nn12 (stereo not given),inactive,
O=C(O)Cc1sc(Nc2ccc(F)cc2)nc1-c1cccs1,"inconclusive: 79.4 µM [inhibitor, partial curve, poor fit]",
CCS(=O)(=O)c1c([N+](=O)[O-])ncn1C,inactive,

Compound,Potency,"activity change, negative = inhibition"
Cc1cc(-c2nc3ccccc3s2)ccc1N,"inconclusive: 100 µM [inhibitor, single point]",
COc1cc(/C=N/NC(=O)c2cc3ccccc3cc2O)ccc1OCCN1CCCCC1,"inconclusive: 63.1 µM [inhibitor, partial curve, poor fit]",
CCOc1ccc(CNC(=O)c2ccccc2NC(=O)c2nsc3ccccc23)cc1,inactive,
COc1cc(/C=C2\C(=O)ON=C2c2ccccc2)cc(Br)c1O,"inconclusive: 39.8 µM [inhibitor, partial curve, poor fit]",
CCOc1cc(/C=C2/C(=N)N3N=C(C)SC3=NC2=O)ccc1OS(=O)(=O)c1ccc(C)cc1,"inconclusive: 89.1 µM [inhibitor, single point]",
Cc1cc(=O)oc2cc(OCC(=O)N/N=C/c3ccccc3[N+](=O)[O-])ccc12,"inconclusive: 35.5 µM [inhibitor, full curve, poor fit]",
COc1ccc(C2=NN(C(C#N)c3ccc(OC)cc3)C(c3ccccc3)C2)cc1 (stereo not given),inactive,
CCOc1ccc(CNC(=O)C2CCN(C(=O)N3CC(CC)Oc4ccccc43)CC2)cc1 (stereo not given),inactive,
CC(C(=O)Nc1cccnc1)c1ccc([N+](=O)[O-])cc1 (stereo not given),inactive,
CN(C)c1ccc(/C=N\NC(=O)c2csnn2)cc1,,inactive: 1.05% [at 11.4 µM]
O=C(Cc1cccs1)N(c1ccc(Br)cc1)C1C=CS(=O)(=O)C1 (stereo not given),"inconclusive: 35.5 µM [inhibitor, partial curve, poor fit]",
CCN(CC)S(=O)(=O)c1ccc(N2CCN(CCOc3ccc(OC)cc3)CC2)nc1,inactive,
CCOc1ccc2nc(NC(=S)N(C)C)sc2c1,"inconclusive: 79.4 µM [inhibitor, partial curve, poor fit]",
COc1ccc(NC(=O)C2=NN(c3ccccc3)C(=O)CC2)cn1,inactive,
Cc1ccc(CNC(=O)c2cc3c(-c4ccc(Cl)cc4)nn(C)c3s2)o1,"inconclusive: 39.8 µM [inhibitor, partial curve, poor fit]",
CC(=NNc1nc2ccccc2s1)c1ncccn1,"inconclusive: 89.1 µM [inhibitor, single point]",
Cc1ccccc1CN1C(=O)c2ccccc2Sc2ccc(C(=O)NCc3ccccc3)cc21,inactive,
CC(C)c1cc(N=NC(N)=O)cc(C(C)C)c1O,"inconclusive: 79.4 µM [inhibitor, partial curve, poor fit]",
COc1ccc(C(=O)N2C(=S)NC(=O)/C2=C\c2ccc(C)cc2)cc1,"inconclusive: 20 µM [inhibitor, full curve, poor fit]",
CCN(CC(=O)NCc1cccs1)C(=O)c1cc(S(=O)(=O)N2CCOCC2)ccc1C,"inconclusive: 89.1 µM [inhibitor, single point]",
CCCc1[nH]nc2c1C(c1ccc(OC)c(CSC3=NCCS3)c1)C(C#N)=C(N)O2 (stereo not given),"inconclusive: 31.6 µM [inhibitor, full curve, poor fit]",

# — PubChem BioAssay AID504845 (National Center for Advancing Translational Sciences (NCATS), 2011)
